This is an account of results in the antibiotic and cytotoxicity screens of Wong et al. (2023).

Structures are written as SMILES. This is one part of the list.

For one test, the system named is HSkMC. Put plainly: cytotoxicity call (relative viability < 0.9). As to conditions: 10 µM.
In another test the test system is HepG2. Briefly: cytotoxicity call (relative viability < 0.9). The conditions noted are these: 10 µM.
For another test, the system named is S. aureus RN4220. Briefly: growth inhibition call (relative growth <= 0.2). As to conditions: 50 µM.

As for `C[C@@H]1CCCCO[C@@H](CN(C)Cc2ccc3c(c2)OCO3)[C@@H](C)CN([C@@H](C)CO)C(=O)c2cc(NC(=O)c3ccccc3)ccc2O1`, the cytotoxicity call in the test with HSkMC and in the test with HepG2 was “inactive” each time. Further, the growth inhibition call in the test with S. aureus RN4220 was “inactive”.
On to `O=C(O)CCC(=O)NCc1cccnc1`, for which the cytotoxicity call with HSkMC and in the test on HepG2 was “inactive” throughout. In the test with S. aureus RN4220, the growth inhibition call is “inactive”.
Consider `NC(N)=O`, for which the cytotoxicity call in the test with HSkMC and in the test on HepG2 was “inactive” in each case. In addition, the growth inhibition call with S. aureus RN4220 was “inactive”.
With `CN(C)CCCNC(=O)C[C@@H]1CC[C@@H]2[C@@H](COc3ccc(NC(=O)c4ccc5c(c4)OCO5)cc3C(=O)N2C)O1`, the cytotoxicity call in the test on HSkMC and with HepG2 was “inactive” each time. Moreover, the growth inhibition call in the test with S. aureus RN4220 is “inactive”.
Turning to `C[C@H](CO)N1C[C@H](C)[C@@H](CN(C)S(=O)(=O)c2cn(C)cn2)Oc2ccc(NC(=O)Nc3ccc(F)cc3)cc2C1=O`, the cytotoxicity call with HSkMC and in the test on HepG2 was “inactive” throughout. Further, the growth inhibition call with S. aureus RN4220 was “inactive”.
As to `C[C@@H]1CN([C@@H](C)CO)C(=O)c2cc(NS(=O)(=O)c3ccc(F)cc3)ccc2O[C@H]1CN(C)S(=O)(=O)c1cn(C)cn1`, the cytotoxicity call in the test with HSkMC and in the test on HepG2 was “inactive” in each case. Moreover, the growth inhibition call in the test with S. aureus RN4220 was “inactive”.
With `C[C@@H]1CN([C@@H](C)CO)C(=O)c2cc(NS(=O)(=O)c3ccc(Cl)cc3)ccc2O[C@@H]1CN(C)C(=O)Nc1cccc2ccccc12`, the cytotoxicity call with HSkMC and in the test on HepG2 was “inactive” each time. For the same compound, the growth inhibition call in the test on S. aureus RN4220 was “inactive”.
As to `C[C@H](CO)N1C[C@H](C)[C@H](CN(C)Cc2ccc(C(=O)O)cc2)OCCCC[C@H](C)Oc2ccc(NS(=O)(=O)c3ccc(F)cc3)cc2C1=O`, the cytotoxicity call in the test on HSkMC and in the test on HepG2 was “inactive” throughout. Also, the growth inhibition call in the test with S. aureus RN4220 was “inactive”.
Consider `C[C@@H]1CN([C@@H](C)CO)C(=O)c2cc(NC(=O)Nc3ccc(C(F)(F)F)cc3)ccc2O[C@H]1CN(C)Cc1ccc(C(=O)Nc2ccccc2N)cc1`, for which the cytotoxicity call in the test on HSkMC was “inactive”. Besides, in the test on HepG2, the cytotoxicity call was “active”. Moreover, the growth inhibition call in the test with S. aureus RN4220 is “inactive”.
For the compound `COc1ccc2c3c(n(c2c1)C)[C@@H](CO)N(C[C@]13CCN(CC1)Cc1ccccc1F)C(=O)Nc1ccc(cc1)F`, the cytotoxicity call in the test on HSkMC is “inactive”. Further, in the test on HepG2, the cytotoxicity call was “active”. The growth inhibition call with S. aureus RN4220 is “inactive”.
Regarding `CC(C)(C)[S@](=O)N1Cc2cc(C(=O)N3CCCCC3)nc(-c3cccc(-c4cccc(C#N)c4)c3)c2[C@@H]1CCO`, the cytotoxicity call in the test on HSkMC and in the test with HepG2 was “inactive” in each case. For the same compound, in the test on S. aureus RN4220, the growth inhibition call was “inactive”.
In the case of `Cc1noc(NS(=O)(=O)c2ccc(N)cc2)c1C`, the cytotoxicity call in the test with HSkMC and with HepG2 was “inactive” throughout. The growth inhibition call with S. aureus RN4220 is “inactive”.
Regarding `COc1ccc(S(=O)(=O)N(C)C[C@@H]2Oc3ccc(NC(=O)c4ccncc4)cc3C(=O)N([C@H](C)CO)C[C@H]2C)cc1`, the cytotoxicity call in the test on HSkMC and in the test on HepG2 was “inactive” throughout. The growth inhibition call with S. aureus RN4220 was “inactive”.
For the compound `C[C@@H]1CN([C@H](C)CO)C(=O)c2cccc(NS(=O)(=O)c3cn(C)cn3)c2O[C@H]1CN(C)C(=O)Nc1ccc(F)cc1`, the cytotoxicity call in the test with HSkMC and in the test with HepG2 was “inactive” in each case. The growth inhibition call with S. aureus RN4220 is “inactive”.
Turning to `C[C@H](NC(=O)C[C@@H]1C=C[C@H](NC(=O)CN2CCOCC2)[C@H](CO)O1)c1ccccc1`, the cytotoxicity call in the test on HSkMC and in the test on HepG2 was “inactive” each time. In addition, in the test with S. aureus RN4220, the growth inhibition call was “inactive”.
`CC[C@@H](N)C12CC3CC(CC(C3)C1)C2`: the cytotoxicity call with HSkMC and with HepG2 was “inactive” each time. Besides, the growth inhibition call in the test on S. aureus RN4220 was “inactive”.
`C[C@@H]1CN([C@H](C)CO)S(=O)(=O)c2ccc(C#CC3CCCC3)cc2O[C@H]1CN(C)Cc1cncnc1`: the cytotoxicity call in the test on HSkMC and with HepG2 was “inactive” each time. Also, the growth inhibition call in the test on S. aureus RN4220 was “inactive”.
On to `COC(=O)c1cc(-c2ccccc2)oc1CN`, for which the cytotoxicity call with HSkMC and in the test with HepG2 was “inactive” each time. Moreover, the growth inhibition call in the test with S. aureus RN4220 was “inactive”.
`C[C@H]1CN([C@@H](C)CO)C(=O)c2cc(NC(=O)Nc3ccc(C(F)(F)F)cc3)ccc2O[C@@H]1CN(C)Cc1ccc(C(=O)O)cc1`: the cytotoxicity call with HSkMC and with HepG2 was “inactive” each time. The growth inhibition call in the test with S. aureus RN4220 was “inactive”.
As to `COc1ccc(NC(=O)Nc2ccc3c(c2)C(=O)N([C@@H](C)CO)C[C@H](C)[C@H](CN(C)C(=O)Nc2ccc4c(c2)OCO4)OCCCC[C@H](C)O3)cc1`, the cytotoxicity call in the test with HSkMC and in the test with HepG2 was “inactive” throughout. Besides, the growth inhibition call in the test with S. aureus RN4220 was “inactive”.
For the compound `C[C@@H]1CN([C@H](C)CO)C(=O)c2cc(NC(=O)c3ccncc3)ccc2O[C@H]1CN(C)Cc1ccncc1`, the cytotoxicity call in the test with HSkMC and in the test on HepG2 was “inactive” each time. Also, the growth inhibition call in the test with S. aureus RN4220 is “inactive”.
For the compound `O=C(NCCN1CCOCC1)c1ccc(Cl)c(S(=O)(=O)N2CCOCC2)c1`, the cytotoxicity call in the test on HSkMC and in the test on HepG2 was “inactive” throughout. Further, the growth inhibition call with S. aureus RN4220 is “inactive”.
With `Cc1ccc(S(=O)(=O)N(C)C[C@H]2Oc3ccc(NS(=O)(=O)c4cn(C)cn4)cc3C(=O)N([C@@H](C)CO)C[C@H]2C)cc1`, the cytotoxicity call in the test on HSkMC and in the test with HepG2 was “inactive” each time. Moreover, the growth inhibition call in the test on S. aureus RN4220 was “inactive”.
`C[C@@H]1CN([C@H](C)CO)C(=O)c2cccc(NS(=O)(=O)c3cccs3)c2O[C@@H]1CN(C)Cc1ccc(-c2ccccc2)cc1`: the cytotoxicity call in the test on HSkMC (human skeletal muscle cells) and in the test on HepG2 was “inactive” throughout. The growth inhibition call with S. aureus RN4220 was “inactive”.
For `Cc1ccc(S(=O)(=O)N(C)C[C@@H]2OCCCC[C@@H](C)Oc3ccc(NC(=O)Nc4ccc(F)cc4)cc3C(=O)N([C@@H](C)CO)C[C@H]2C)cc1`, the cytotoxicity call with HSkMC and in the test with HepG2 was “inactive” in each case. Further, the growth inhibition call in the test on S. aureus RN4220 is “inactive”.
Take `COCCCNC(=O)[C@]1(Cc2ccccc2N=[N+]=[N-])N=C(c2ccc(OCCCO)cc2)O[C@@H]1c1ccccc1`: the cytotoxicity call with HSkMC and with HepG2 was “inactive” in each case. The growth inhibition call in the test with S. aureus RN4220 is “inactive”.
